Assay results taken from the supplement of paper PMC3334620.
Over roughly 33,000 sequences, “E-score (-0.5 to 0.5)” has its median near -0.054; the highest 2% begin near 0.35. Some of the results follow.

target: T1, Stb5 (UniProt P38699); test: PBM E-score (8-mer binding enrichment) (E-score (-0.5 to 0.5)); higher = stronger / more preferred TF binding; most listed sequences are background and not binding sites; conditions: protein concentration: 200 nM; construct: GST-full length
T1 sequence: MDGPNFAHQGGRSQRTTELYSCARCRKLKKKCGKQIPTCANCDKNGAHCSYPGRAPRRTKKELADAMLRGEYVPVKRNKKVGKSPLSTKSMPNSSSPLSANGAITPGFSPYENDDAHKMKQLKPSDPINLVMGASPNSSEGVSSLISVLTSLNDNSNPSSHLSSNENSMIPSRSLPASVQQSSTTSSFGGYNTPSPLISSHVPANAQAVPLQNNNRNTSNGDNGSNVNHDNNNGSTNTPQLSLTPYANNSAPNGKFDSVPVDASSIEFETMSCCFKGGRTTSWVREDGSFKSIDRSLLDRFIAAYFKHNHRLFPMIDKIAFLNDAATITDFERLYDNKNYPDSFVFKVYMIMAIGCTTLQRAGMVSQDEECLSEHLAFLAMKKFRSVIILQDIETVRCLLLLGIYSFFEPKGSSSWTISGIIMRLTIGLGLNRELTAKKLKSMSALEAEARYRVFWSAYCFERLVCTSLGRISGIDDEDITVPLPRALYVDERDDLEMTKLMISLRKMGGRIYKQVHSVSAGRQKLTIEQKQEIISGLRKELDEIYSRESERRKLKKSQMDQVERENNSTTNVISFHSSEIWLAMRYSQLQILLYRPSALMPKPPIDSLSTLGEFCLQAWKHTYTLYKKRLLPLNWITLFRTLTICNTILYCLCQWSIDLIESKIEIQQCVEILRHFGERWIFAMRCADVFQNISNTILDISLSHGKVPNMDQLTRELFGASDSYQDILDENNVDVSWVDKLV
Outline: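 Detection of bound protein used fluorescent anti-GST, with scans normalised by masliner. The proteins were GST-tagged yeast transcription factors applied at about 100-200 nM to universal all-10-mer Agilent arrays made double-stranded by primer extension. Each ungapped eight-base word, pooled with its reverse complement, was scored with an E-score from the Universal PBM Analysis Suite.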

Row | Sequence | PBM E-score
1 | ATCACCGC | 0.447
2 | CTCATAGC | -0.176
3 | ACTTGCCA | -0.159
4 | ATGTGAGG | -0.167
5 | GAATTTTA | 0.167
6 | AGGGGGAT | -0.0737
7 | ACTAGAAC | -0.0405
8 | ATTTATTC | 0.00246
9 | GATCGATA | -0.179
10 | GGTACATA | 0.201
11 | GAAAACGC | -0.0942
12 | CCACAGAA | -0.0806
13 | AACACGAT | 0.0298
14 | AATCGCAC | -0.0177
15 | ATTGGGTA | -0.242
16 | GGCCCTTA | 0.0831
17 | ACGTAATA | -0.11
18 | GCAACTCA | -0.0746
19 | ACAATAAC | 0.0538
20 | CCGGCGAC | 0.201
21 | AGGGTTCC | -0.0764
22 | ACAAAAGG | 0.0822
23 | CTGAAGCA | -0.26
24 | TAGCCTGA | -0.245
25 | CCGCATCC | 0.0876

Row | Sequence | PBM E-score
26 | CTACCCAG | -0.25
27 | CACTTAGG | -0.0713
28 | ATTATAGA | 0.0974
29 | CTCTTCGC | -0.0289
30 | CAGGGGAG | -0.15
31 | CGGTTACG | 0.22
32 | AAAAAACC | 0.105
33 | AGAGCCAA | -0.404
34 | TGGGACCA | -0.16
35 | GCTGGACA | -0.218
36 | CTCCATAA | -0.0554
37 | CTAAGACC | 0.22
38 | AAGTGCCG | 0.409
39 | GCGTGCAA | -0.143
40 | CAGGAAGC | -0.293
41 | AGATGTCC | 0.0605
42 | AAAACCGG | 0.261
43 | AGTGCCAC | -0.251
44 | AAGCTGGG | -0.068
45 | GAGTAAAA | -0.0321
46 | ACTAAATG | -0.102
47 | GTACGGTA | 0.123
48 | GGCAGGAA | -0.199
49 | ATCCGAAA | 0.173
50 | ACCAAGAC | 0.0173

Row | Sequence | PBM E-score
51 | GTAGGGAC | -0.04
52 | GAGGCGGC | 0.265
53 | ACTGGTGC | 0.0493
54 | TAGCCTAA | -0.133
55 | CATATGAG | -0.0773
56 | AGCTATAT | -0.13
57 | CGCTGAAA | -0.0059
58 | CCCTTCCC | -0.167
59 | GCCTCCTA | -0.0585
60 | TCAATTCA | -0.101
61 | GGGCGAGA | -0.236
62 | CCGCGAGG | 0.297
63 | CTCTTCGA | 0.00351
64 | AGTCTCCC | -0.0651
65 | AGCGGACG | 0.284
66 | CGGCCGAG | 0.127
67 | CCCCAAGC | -0.00416
68 | TCAATAGA | -0.228
69 | ACAACGCC | 0.203
70 | GAGAATGC | 0.0403
71 | CCTAGGGA | -0.0248
72 | CACAATTC | -0.0913
73 | GAGCGCCC | 0.0509
74 | TACATAAA | -0.151
75 | AGTGCAAG | -0.0268

Row | Sequence | PBM E-score
76 | AGCGAGTC | -0.132
77 | ATGGCCTC | -0.193
78 | AACCGAGC | 0.17
79 | GCCCACGA | -0.243
80 | AATACCCG | 0.33
81 | CTGGCAAA | -0.24
82 | ATCTTCGA | -0.206
83 | GTGCGATA | 0.139
84 | GCGTGAAA | 0.0412
85 | ACTCCAAT | -0.0633
86 | ATGACTGC | -0.14
87 | GAGTGTGC | -0.0762
88 | CTGAACTC | -0.342
89 | TCCTCCAA | -0.248
90 | ATGACTTG | -0.187
91 | ACTATGTA | -0.149
92 | AGGTGTAA | 0.0835
93 | ATCTCTGG | -0.212
94 | CGCTGGTC | 0.0566
95 | TGGTGACA | 0.0421
96 | CCAGACAG | -0.145
97 | ATCGCGAT | -0.00155
98 | ATCTGGCG | 0.0981
99 | CCTGTTAG | -0.039
100 | ACTCGTAA | 0.0379

Row | Sequence | PBM E-score
101 | CCAACAGC | -0.0163
102 | GAGGCGGA | 0.25
103 | AAGTACCC | 0.0204
104 | CATATATC | 0.127
105 | GGGGCCGA | 0.158
106 | TAGATCCA | 0.0564
107 | CTGTGGCA | -0.279
108 | AAGGTACT | -0.0323
109 | ACTATCAC | -0.127
110 | ACGGGGGC | 0.186
111 | CGTGATTC | 0.0453
112 | TCGCCACA | -0.0176
113 | CATAGTAA | -0.181
114 | CCTTTGAA | -0.208
115 | ACTCCCCT | -0.0396
116 | CGCCACAA | 0.0469
117 | GATCCTAC | -0.102
118 | CAAAGTGC | 0.0852
119 | AAAAAATG | 0.00429
120 | GTTATAGA | -0.0682
121 | CGGCGGTA | 0.451
122 | GGGAAGGA | -0.0839
123 | CCAACGGC | 0.256
124 | ATCTAACA | -0.227
125 | ATGGAGCG | -0.0248

Row | Sequence | PBM E-score
126 | AGTGGTCG | -0.0369
127 | CCTATACG | -0.2
128 | TAGTTCAA | -0.125
129 | GGAGTCCC | -0.0299
130 | AACTCACG | -0.131
131 | TAGTGAGA | -0.143
132 | GACCTTAC | 0.0679
133 | CGTGAATA | 0.108
134 | CCCGGTGC | 0.315
135 | CCCTATAC | -0.111
136 | ATCGGACA | 0.332
137 | ACCCCAAG | -0.116
138 | CGGAAGCA | 0.152
139 | ATTGGCGG | 0.203
140 | TCCGCAAA | 0.177
141 | GCGGCTGA | -0.119
142 | CGGATTAG | 0.117
143 | AAGATCTA | -0.149
144 | AACGTCCA | -0.0958
145 | CGATCGCG | 0.166
146 | CGTGTTGC | 0.124
147 | AGTAACTG | -0.148
148 | AGCAAACT | -0.0382
149 | ACGGACAA | 0.296
150 | AAAATAGC | 0.0371

Row | Sequence | PBM E-score
151 | ACTTTTTC | -0.0329
152 | CAGCCTCA | -0.337
153 | ATATTCAC | -0.0956
154 | GGCGTACA | 0.0284
155 | ACGACTTC | -0.0712
156 | CCACGTCC | 0.0378
157 | CACTTATC | -0.0756
158 | CTGGGCAA | -0.0222
159 | ACTGGTAG | -0.166
160 | CAATTTAA | 0.0424
161 | CAAGGGGC | -0.167
162 | TAATGACA | -0.0686
163 | ACATCCGA | 0.312
164 | ACACAATG | -0.3
165 | AAGACGCG | -0.0265
166 | CCGCTACG | 0.355
167 | CGGTTCTC | 0.065
168 | GAGGCACC | 0.179
169 | ACCTGTTG | -0.058
170 | AGATAGCC | 0.0746
171 | CCCGACGC | 0.388
172 | ATCTTCTG | 0.111
173 | CGCAGACC | 0.00233
174 | CGGCCCTC | 0.16
175 | GGGATCAC | 0.0287

Row | Sequence | PBM E-score
176 | AGTAACGG | 0.215
177 | CCGATAGC | 0.24
178 | AGGAGTAT | -0.261
179 | AACATGGA | -0.102
180 | GACCTGGC | -0.162
181 | GATGTGCC | 0.0775
182 | GGGATAGA | 0.128
183 | AAGAAGAC | -0.0592
184 | GGACCGAC | 0.318
185 | CACAGTGG | -0.0596
186 | CAGAATTC | -0.0843
187 | CCCGATCA | 0.323
188 | AACCCACA | -0.21
189 | ATGCTGGA | -0.171
190 | AGACAAAA | -0.134
191 | CACCGCAA | 0.368
192 | GCTCCTCC | -0.242
193 | GCACTCGC | -0.101
194 | AAGTGACA | 0.0166
195 | GCAGCGGA | 0.197
196 | AATCTCAA | -0.0716
197 | ACTTAGCA | -0.0867
198 | CCACCTCA | -0.116
199 | GGTGTTAC | 0.4
200 | AACACGAC | -0.168

Row | Sequence | PBM E-score
201 | GAGCTTCC | 0.0768
202 | CATCCATA | -0.0155
203 | CCTCCGCA | 0.15
204 | GGGTGTGA | -0.0466
205 | ACAATCGG | 0.323
206 | GCATTGAC | -0.0989
207 | CACAGGAA | -0.257
208 | GCTAGCAC | 0.0767
209 | TACCCATA | -0.208
210 | CGATAGGC | 0.0483
211 | CTTCATCA | -0.214
212 | CGTGAAAA | -0.137
213 | CCCGGAGA | 0.27
214 | GCTGACGA | -0.341
215 | GCGTGCGA | -0.165
216 | GTGCTGCA | 0.0941
217 | GGAGGAAA | 0.216
218 | ATCAGGGC | -0.218
219 | GATAACAC | 0.139
